Several values for one entry are separate records, joined by “and”; a condition that tells them apart may be missing. Identical values can stand only once. The campaign covered roughly 230,000 compounds. About 3,600 (1.6%) were called active. Inconclusive means that the source gave no clear call. Such entries were picked first, then a sample of the others. The call rests on the fitted dose curve; in most records, active means well fitted inhibition curve with a large enough effect (not every such curve was filed as active); inconclusive means small, poorly fitted or top-dose-only effect, or another doubt; inactive means no such curve, though single readings can be large or run the other way. Potencies of inconclusive entries are doubtful fits and often do not repeat.
target: Lysine-specific demethylase 4E (Homo sapiens) (UniProt B2RXH2); test: qHTS Assay for Inhibitors of Human Jumonji Domain Containing 2E (JMJD2E); details: JMJD2E catalytic domain, FDH-coupled NADH fluorescence (FDH is formaldehyde dehydrogenase); series mostly up to 57.1 µM; activity change, negative = inhibition: at the top concentration
Further: nearly all actives have a fitted effect of over 50% in size.
Potency means the concentration at half of the fitted maximal effect; tags describe the fitted curve by direction and shape.
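Wherever activity change, negative = inhibition is given: 0% = wells with enzyme and -100% = buffer wells without enzyme.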

Sequence of UniProt B2RXH2 (B2RXH2 whole entry, looked up, the tested form may be a part): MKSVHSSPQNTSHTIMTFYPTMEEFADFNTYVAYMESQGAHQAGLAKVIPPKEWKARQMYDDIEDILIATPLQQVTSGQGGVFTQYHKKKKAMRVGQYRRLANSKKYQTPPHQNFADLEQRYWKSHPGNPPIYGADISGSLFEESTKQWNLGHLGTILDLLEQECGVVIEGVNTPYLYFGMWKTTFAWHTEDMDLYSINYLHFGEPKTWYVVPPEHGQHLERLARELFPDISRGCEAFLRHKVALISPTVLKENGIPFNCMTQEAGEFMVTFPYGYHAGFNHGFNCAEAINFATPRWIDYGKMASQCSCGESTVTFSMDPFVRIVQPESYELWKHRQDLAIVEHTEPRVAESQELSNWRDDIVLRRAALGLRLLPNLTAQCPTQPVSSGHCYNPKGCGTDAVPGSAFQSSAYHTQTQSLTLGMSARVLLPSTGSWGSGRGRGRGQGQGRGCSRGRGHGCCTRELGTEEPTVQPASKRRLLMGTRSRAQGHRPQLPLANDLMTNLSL

| Compound | Potency | activity change, negative = inhibition |
| --- | --- | --- |
| Cc1cc(C)n2cnnc2n1 | inconclusive: 28.2 µM [inhibitor, partial curve] | – |
| Cc1ccc(SCc2[nH]nc3c2C(C(C)C)C(C#N)=C(N)O3)cc1 (configuration not stated) | – | inactive: 3.63% |
| COc1ccc(/C=C/C(=O)Nc2ccccc2C(=O)O)cc1OC | inconclusive: 35.5 µM [inhibitor, single point] and inconclusive: 20 µM [inhibitor, partial curve] and inconclusive: 39.8 µM [inhibitor, single point] | – |
| CCC(=O)N1N=C(c2ccc(NS(C)(=O)=O)cc2)CC1c1ccc(N(C)C)cc1 (configuration not stated) | inconclusive: 25.1 µM [inhibitor, partial curve] | – |
| CCCc1cc(-c2ccc(O)c(OCC)c2)c(C#N)c(N)n1 | inconclusive: 39.8 µM [inhibitor, single point] | – |
| O=C(Nc1ccc(N2CCN(C(=O)c3ccco3)CC2)c(Cl)c1)c1c(F)c(F)c(F)c(F)c1F | – | inactive: -0.892% |
| Cc1ccc(OCC(=O)Nc2ccc(F)cc2)cc1C | – | inactive: 3.38% |
| COC(=O)c1c(NC(=O)c2cccc([N+](=O)[O-])c2)sc(C(N)=O)c1C | – | inactive: 3.11% |
| CN1CCN(c2nc3ccccc3nc2C(C#N)S(=O)(=O)c2ccccc2)CC1 (configuration not stated) | inconclusive: 22.4 µM [inhibitor, single point] | – |
| CN(C)c1nc(-c2ccccc2)ncc1S(=O)(=O)c1ccccc1 | inconclusive: 28.2 µM [inhibitor, partial curve] | – |
| Cc1c(/C(O)=C2/C(=O)C(=O)N(Cc3cccnc3)C2c2ccccn2)cnn1-c1ccccc1 (configuration not stated) | inconclusive: 39.8 µM [inhibitor, single point] | – |
| Cc1cc(OCCOCCN2CCCC2)ccc1C(C)C | inconclusive: 35.5 µM [inhibitor, single point] | – |
| CC1Cn2c(nc3sc4c(c3c2=O)CCC4)N1CCO (configuration not stated) | inconclusive: 28.2 µM [inhibitor, partial curve] | – |
| O=C(CSc1ccc(-c2ccccn2)nn1)c1ccc(F)cc1 | inconclusive: 39.8 µM [inhibitor, single point] | – |
| O=c1ccc2ccc(OCc3nnc(-c4ccccc4Br)o3)cc2o1 | inconclusive: 35.5 µM [inhibitor, single point] | – |
| COCc1cc(C)nc(OCC(=O)N/N=C/c2ccc(OC)c(O)c2)c1C#N | inconclusive: 28.2 µM [inhibitor, single point] | – |
| COc1ccc(NC(=O)CNC(=O)Cn2c(C)cc3ccccc3c2=O)cc1OC | inconclusive: 28.2 µM [inhibitor, single point] | – |
| Cc1ccc(-c2nc(Nc3cccc(C)c3)sc2CC(=O)O)cc1 | inconclusive: 35.5 µM [inhibitor, single point] | – |
| COc1cccc2c(=S)c(CCC(C)=O)c(C)[nH]c12 | – | inactive: -6.26% |
| Cc1ccc2nc(-c3cccc(N)c3)oc2c1 | inconclusive: 28.2 µM [inhibitor, partial curve] | – |
| COc1ccccc1NC(=O)CCC(=O)N(Cc1ccc(OC)c(OC)c1)c1nccs1 | – | inactive: 3.85% |
| COC(=O)c1ccc(NC(=O)c2ccccc2NS(C)(=O)=O)cc1 | – | inactive: -0.499% |
| COc1cc(C(c2nnnn2C2CCCC2)N2CCc3ccccc3C2)ccc1O (configuration not stated) | inconclusive: 39.8 µM [inhibitor, single point] | – |
| COC(=O)Cc1c(C)nc2nc[nH]n2c1=O | inconclusive: 28.2 µM [inhibitor, single point] | – |

| Compound | Potency | activity change, negative = inhibition |
| --- | --- | --- |
| O=C1c2ccccc2NC(c2cn[nH]c2-c2ccc(Cl)cc2)N1O (configuration not stated) | inconclusive: 39.8 µM [inhibitor, single point] | – |
| CN1C(=O)/C(=C2\SC(=S)N(C(CCC(=O)O)C(=O)O)C2=O)c2ccccc21 (configuration not stated) | active: 12.6 µM | – |
| O=C(O)c1cccc(S(=O)(=O)N2CCN(C(c3ccccc3)c3ccccc3)CC2)c1 | inconclusive: 39.8 µM [inhibitor, single point] | – |
| COc1cccc(-c2nn3c(-c4cc(C)[nH]n4)nnc3s2)c1 | – | inactive: 6.96% |
| CCOC(=O)c1c(NC(=O)c2cccs2)sc2c1CCN(C(=O)OCC)C2 | inconclusive: 35.5 µM [inhibitor, partial curve] | – |
| O=C(C(Cc1ccccc1)n1cccc1)N1CCN(Cc2ccccc2)CC1 (configuration not stated) | – | inactive: -4.19% |
| O=C1c2ccccc2C(=O)N1SC1CCCCC1 | – | inactive: -2.43% |
| COC(=O)c1cc2c(cc1N)OCCO2 | inconclusive: 31.6 µM [inhibitor, partial curve] | – |
| O=C(COC(=O)c1nc(Cl)ccc1Cl)c1ccc(Cl)s1 | inconclusive: 39.8 µM [inhibitor, single point] | – |
| CC(=O)N/C(=C/c1ccc2c(c1)OCO2)C(=O)NCCO | inconclusive: 35.5 µM [inhibitor, single point] | – |
| Cc1ccc(C(=O)NC2CCCCCC2)o1 | – | inactive: 3.54% |
| COc1ccc(Nc2ncc(C(=O)N3CCN(c4ccc(F)cc4)CC3)c3ccccc23)cc1 | inconclusive: 35.5 µM [inhibitor, single point] | – |
| COc1ccc(CC(=O)NCc2n[nH]c(=S)n2-c2cccc(C)c2)cc1 | – | inactive: 7.78% |
| Cc1ccnc(N2CCCC(C(=O)Nc3cc(F)ccc3C)C2)n1 (configuration not stated) | inconclusive: 31.6 µM [inhibitor, single point] | – |
| COc1ccc(OC)c(/C=N/Nc2nncn2/N=C/c2cc(OC)ccc2OC)c1 | inconclusive: 12.6 µM [inhibitor, partial curve] | – |
| CC(C)(C)n1nnnc1C(c1ccc2ncccc2c1)N1CCC(O)CC1 (configuration not stated) | – | inactive: -5.07% |
| Cc1ccc(-c2cc(-c3ccc(F)cc3)c(C#N)c(N)n2)o1 | – | inactive: -6.12% |
| COC(=O)c1[nH]c(=O)c2ccccc2c1O | inconclusive: 31.6 µM [inhibitor, single point] | – |
| N#C/C(=C(/O)COC(=O)c1ccc(C#N)cc1)c1nc2ccccc2s1 | – | inactive: 0.876% |
| CCCCn1nc2cc(C(=O)NCCc3ccc(C)cc3)ccc2c1OCC | inconclusive: 28.2 µM [inhibitor, partial curve] | – |
| CC(NC(=O)/C(=C/c1ccc(OC(F)F)cc1)c1ccccc1)c1ccccc1 (configuration not stated) | – | inactive: -8.15% |
| COc1ccc2[nH]c(=O)c(CN(Cc3nnnn3Cc3ccco3)C3CCCCC3)cc2c1 | inconclusive: 28.2 µM [inhibitor, partial curve] | – |
| COc1ccc(-c2csc(NC(=O)c3cc(C)on3)c2C#N)cc1OC | inconclusive: 39.8 µM [inhibitor, single point] | – |
| COc1cc(OC)c2cc(C(=O)N/N=C/c3cccc(OC)c3O)[nH]c2c1 | active: 10 µM | – |

| Compound | Potency | activity change, negative = inhibition |
| --- | --- | --- |
| CC1CN(C(=S)NC(=O)c2cccc([N+](=O)[O-])c2)CC(C)O1 (configuration not stated) | – | inactive: -6.98% |
| CC(=O)Oc1cc2oc(=O)cc(C)c2cc1Cl | inconclusive: 25.1 µM [inhibitor, partial curve] | – |
| O=C1CC(c2ccccc2)c2ccccc21 (configuration not stated) | – | inactive: 3.97% |
| Cc1sc(-c2cccnc2)nc1OC(=O)C1CC1 | inconclusive: 28.2 µM [inhibitor, partial curve] | – |
| Cc1ccc2[nH]c3c(N4CCN(Cc5ccccc5)CC4)ncnc3c2c1 | inconclusive: 31.6 µM [inhibitor, partial curve] | – |
| O=C(O)CSc1nc(-c2ccccc2)c(-c2ccccc2)[nH]1 | inconclusive: 31.6 µM [inhibitor, partial curve] | – |
| CNc1oc(-c2ccco2)nc1C#N | inconclusive: 31.6 µM [inhibitor, partial curve] | – |
| CCOC(=O)c1c(NC(=O)C2=C(C)NC(=S)NC2c2ccc(F)cc2)sc(C)c1C (configuration not stated) | inconclusive: 31.6 µM [inhibitor, partial curve] | – |
| O=C(NCc1ccccc1)Nc1cccn(Cc2ccccc2)c1=O | inconclusive: 31.6 µM [inhibitor, partial curve] | – |
| CC(=O)Nc1ccc(S(=O)(=O)C(C#N)c2nc3ccccc3nc2NCCCO)cc1 (configuration not stated) | inconclusive: 28.2 µM [inhibitor, partial curve] | – |
| COC(=O)c1ccc(C(NC(=O)OCc2ccccc2)/C(=C/[C@@H](C)C(=O)NCc2nc3ccccc3s2)c2cccnc2)cc1 (some centres not stated) | – | inactive: -12.1% |
| Cc1ccc(CNc2ccc(N3CCOCC3)c(C(=O)O)c2)s1 | inconclusive: 39.8 µM [inhibitor, single point] | – |
| CCOC(=O)N1CCN(C(c2cccnc2)c2ccc3cccnc3c2O)CC1 (configuration not stated) | active: 14.1 µM | – |
| Cc1cccc(N=Cc2cc3c(cc2[N+](=O)[O-])OCO3)c1 | inconclusive: 39.8 µM [inhibitor, single point] | – |
| O=C(O)c1cccc(N2C(=O)/C(=C/c3ccc(SCc4ccc(Cl)cc4)o3)SC2=S)c1 | active: 22.4 µM | – |
| Cc1cccc(-c2c(O)cc(=O)[nH]c2Cl)c1 | – | inactive: 4.34% |
| Oc1ccc(/C=C/c2cc(O)cc(O)c2)cc1 | inconclusive: 31.6 µM [inhibitor, partial curve] [middle of 4 runs] | – |
| COc1ccc(-c2nc(CCNS(=O)(=O)c3ccc4c(c3)OCCO4)cs2)cc1 | inconclusive: 31.6 µM [inhibitor, partial curve] | – |
| O=C1CSC(c2cccnc2)N1CCc1ccccn1 (configuration not stated) | – | inactive: -0.785% |
| COC(=O)[C@@]1(Cc2ccc(F)cc2)[C@H]2c3cc(C(=O)N4CCCC4)n(CCO)c3C[C@H]2CN1C(=O)c1ccccc1 | inactive | – |
| COCCCn1c(SCC(=O)NNC(=O)c2cccc(O)c2)nnc1-c1ccncc1 | inconclusive: 39.8 µM [inhibitor, single point] | – |
| CCOc1ccc(/C=N/NC(=O)C(C)N(c2ccc(OC)cc2)S(C)(=O)=O)cc1 (configuration not stated) | – | inactive: 0.165% |
| Cc1ccc2nc(NC(=O)CN(C)S(=O)(=O)c3cccc4nsnc34)sc2c1 | – | inactive: 3.87% |
| CCOC(=O)N1CCN(C(=O)/C(=C/c2cccc3ccccc23)NC(=O)c2ccc(OC)c(OC)c2)CC1 | inconclusive: 28.2 µM [inhibitor, single point] | – |
